# Reference: the supplement of paper PMC12217912
# Some of the results follow. The full chains were built here from the parent and the listed change. Values near 0.05 are background.
# B1: TEV protease; numbered along this chain (parent)
# chain: MGESLFKGPRDYNPISSSICHLTNESDGHTTSLYGIGFGPFIITNKHLFRRNNGTLVVQSLHGVFKVKDTTTLQQHLVDGRDMIIIRMPKDFPPFPQKLKFREPQREERICLVTTNFQTKSMSSMVSDTSCTFPSGDGIFWKHWIQTKDGQCGSPLVSTRDGFIVGIHSASNFTNTNNYFTSVPKNFMELLTNQEAQQWVSGWRLNADSVLWGGHKVFMVKPEEPFQPVKEATQL
# Variants of: B1
# Experiment: raw area under fraction-flipped curve 0-4 h after induction (AUC4h, not background-subtracted), DNA-recorder readout of cleavage of the substrate (dimensionless); higher = more cleavage of the substrate by the protease variant
# Conditions: temperature: 34 °C; time window: 0-4 h after rhamnose induction
# Procedure: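 In vivo DNA recorder in E. coli TOP10(DE3) ΔrhaA at 34 °C. Each TEVp single-site mutant (parent TEVp 0) is paired with a single-site variant of the 7-mer TEVs (canonical ENLYFQ|S). The substrate sits between flexible linkers in a Bxb1-sfGFP-TEVs-SsrA fusion, so cleavage stabilises Bxb1 and speeds flipping of a recombination array, read by NGS. The value is the raw area under the fraction-flipped curve over 0-4 h after rhamnose induction (AUC4h), with ≥20 reads per time point. It is not background-subtracted; inactive controls average about 0.047.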
# 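Further: Bxb1 expression induced with 0.2% (w/v) L-rhamnose at OD600 near 0.5, cultures sampled hourly, flipped fraction per protease–substrate barcode pair counted by paired-end Illumina sequencing.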
Variant,area with substrate ENLYCQS,area with substrate ENLYDQS,area with substrate ENLYEQS,area with substrate ENLYGQS,area with substrate ENLYHQS,area with substrate ENLYKQS,area with substrate ENLYMQS,area with substrate ENLYNQS,area with substrate ENLYPQS,area with substrate ENLYTQS,area with substrate ENLYVQS,area with substrate ENLYWQS,area with substrate ENLYRQS,area with substrate ENLYSQS,area with substrate ENLYIQS,area with substrate ENLYQQS,area with substrate ENLYYQS,area with substrate ENLYLQS
MGESLFKGPRDYNPISSSICHLTNESDGHTTSLYGIGFGPFIITNKHLFRRNNGTLVVQSLHGVFKVKDTTTLQQHLVDGRDMIIIRMPKDFPPFPQKLKFREPQREERICLVTTNFQTKSMSSMVSCTSCTFPSGDGIFWKHWIQTKDGQCGSPLVSTRDGFIVGIHSASNFTNTNNYFTSVPKNFMELLTNQEAQQWVSGWRLNADSVLWGGHKVFMVKPEEPFQPVKEATQL [D128C],0.0919,0.0739,0.0708,0.0722,0.111,0.067,0.103,0.0751,0.0795,0.109,0.163,0.111,,,,,,
MGESLFKGPRDYNPISSSICHLTNESDGHTTSLYGIGFGPFIITNKHLFRRNNGTLVVQSLHGVFKVKDTTTLQQHLVDGRDMIIIRMPKDFPPFPQKLKFREPQREERICLVTTNFQTKSMSSMVSDTSCTFPSGDGIFWKHWIQTKDGQCGSPLVSTRDGFIVGIHSASNFTNSNNYFTSVPKNFMELLTNQEAQQWVSGWRLNADSVLWGGHKVFMVKPEEPFQPVKEATQL [T176S],0.086,0.0615,0.0621,0.047,0.0691,0.0684,0.0765,0.067,,,0.0878,0.0643,0.0644,0.0697,,,,
MGESLFKGPRDYNPISSSICHLTNESDGHTTSLYGIGFGPFIITNKHLFRRNNGTLVVQSLHGVFKVKDTTTLQQHLVDGRDMIIIRMPKDFPPFPQKLKFREPQREERICLVTTNFQTHSMSSMVSDTSCTFPSGDGIFWKHWIQTKDGQCGSPLVSTRDGFIVGIHSASNFTNTNNYFTSVPKNFMELLTNQEAQQWVSGWRLNADSVLWGGHKVFMVKPEEPFQPVKEATQL [K120H],0.0946,0.081,0.0609,0.073,0.074,0.058,,0.0721,,,0.132,0.0792,0.0547,0.131,0.126,,,
MGESLFKGPRDYNPISSSICHLTNESDGHTTSLYGIGFGPFIITNKHLFRRNNGTLVVQSLHGVFKVKDTTTLQQHLVDGRDMIIIRMPKDFPPFPQKLKFREPQREERICLVTTNFQTKSMSSMVSDTSCTFPSGDGIFWKHWIQTKDGQCGSPLVSTRDGFIVGIHSASNFTNTNNYFTSVPKNFMELLTNQEAQQWVSGWRLNADSVLWGGHKVFMVRPEEPFQPVKEATQL [K221R],0.0607,0.0614,0.0629,0.0681,0.0673,0.0613,0.0925,0.0575,0.0771,0.0887,,0.0901,0.0687,0.0863,0.155,0.075,0.044,
MGESLFKGPRDYNPISSSICHLTNESDGHTTSLYGIGFGPFIITNKHLFRRNNGTLVVQSLHGVFKVKDTTTLQQHLVDGRDMIIIRMPKDFPPFPQKLKFREPQREERICLVTTNFQTKSMSSMVSDTSCTFPSGDGIFWKHWIQTKDGQCGSPLVSTRDGFIVGIHSASNFTNTNNYFTSVPKNFMELLTNQEAQQWVSGWRLNADSVLWGGHKVFMVKPEYPFQPVKEATQL [E224Y],0.0638,0.0673,0.0597,0.0761,0.0728,0.0662,0.0949,0.0726,,,0.102,0.056,0.0731,0.0952,,0.0802,,
MGESLFKGPRDYNPISSSICHLTNESDGHTTSLYGIGFGPFIITNKHLFRRNNGTLVVQSLHGVFKVKDTTTLQQHLVDGRDMIIIRMPKDFPPFPQKLKFREPQREERICLVTTNFQTKSMSSMVSDTSCTFPSGDGIFWKHWIQTKDGQCGSPLVSTVDGFIVGIHSASNFTNTNNYFTSVPKNFMELLTNQEAQQWVSGWRLNADSVLWGGHKVFMVKPEEPFQPVKEATQL [R160V],0.0869,0.0559,0.0669,0.0646,0.075,0.0177,0.0788,0.0532,0.0811,0.0913,0.123,0.0864,0.0624,,0.153,0.0538,0.0521,
MGESLFKGPRDYNPISSSICHLTNESDGHTTSLYGIGFGPFIITNKHLFRRNNGTLVVQSLHGVFKVKDTTTLQQHLVDGRDMIIIRMPKDFPPFMQKLKFREPQREERICLVTTNFQTKSMSSMVSDTSCTFPSGDGIFWKHWIQTKDGQCGSPLVSTRDGFIVGIHSASNFTNTNNYFTSVPKNFMELLTNQEAQQWVSGWRLNADSVLWGGHKVFMVKPEEPFQPVKEATQL [P96M],0.097,0.0809,0.0644,0.0691,0.0834,0.0725,0.0789,0.0648,0.047,,,0.085,0.062,0.0794,0.106,,,0.0707
MGESLFKGPRDYNPISSSICHLTNESDGHTTSLYGIGFGPFIITNKHLFRRNNGTLVVQSLHGVFKVKDTTTLQQHLVDGRDMIIIRMPKDFPPFPQKLKFREPQREERICLVTTNFQTKSMSSMVSDTSCTFPSGDGIFWKHWIQTKDGQCGSPLVSTRDGFIVGIHSASNFTNTNNYFTSVNKNFMELLTNQEAQQWVSGWRLNADSVLWGGHKVFMVKPEEPFQPVKEATQL [P184N],0.0579,0.0611,0.0649,,0.0629,0.0653,0.0768,0.0519,,0.084,0.0839,0.0294,0.0593,,,,,
MGESLFKGPRDYNPISSSICHLTNESDGHTTSLYGIGFGRFIITNKHLFRRNNGTLVVQSLHGVFKVKDTTTLQQHLVDGRDMIIIRMPKDFPPFPQKLKFREPQREERICLVTTNFQTKSMSSMVSDTSCTFPSGDGIFWKHWIQTKDGQCGSPLVSTRDGFIVGIHSASNFTNTNNYFTSVPKNFMELLTNQEAQQWVSGWRLNADSVLWGGHKVFMVKPEEPFQPVKEATQL [P40R],0.0865,0.0457,0.0734,0.0654,0.0775,,0.0745,0.0737,0.059,0.0676,0.114,0.0948,0.0382,,0.0968,,0.0689,
